Measurements: PubChem BioAssay AID504832 (National Center for Advancing Translational Sciences (NCATS), 2011)
In all, about 310,000 compounds went through this assay and about 18,000 (5.8%) were called active. Inconclusive means that the source gave no clear call. Such entries were picked first, then a sample of the others. The call rests on the fitted dose curve; in most records, active means well fitted inhibition curve with a large enough effect; inconclusive means small, poorly fitted or top-dose-only effect, or another doubt; inactive means no such curve, though single readings can be large or run the other way. Potencies of inconclusive entries are left out as doubtful fits.

Assay: Primary qHTS for delayed death inhibitors of the malarial parasite plastid, 48 hour incubation
Details: P. falciparum luciferase growth in erythrocytes; series mostly up to 28.7 µM
In short: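 Growth was read as firefly luciferase luminescence after a 48 h, 37 C, 5% CO2 exposure of compounds to reporter-bearing P. falciparum cultures (0.1% parasitemia, 2% hematocrit final) in Albumax-supplemented RPMI 1640.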
Potency means the concentration at half of the fitted maximal effect; tags describe the fitted curve by direction and shape.

Row | Compound | Potency
1 | COc1ccc2c(=O)cc(-c3ccccc3F)oc2c1 | inactive
2 | COc1ccc(-c2[nH]ncc2C2N=C(N)Nc3nc4ccccc4n32)cc1 (stereo not given) | inconclusive [inhibitor, partial curve, poor fit]
3 | CN(C)S(=O)(=O)c1cccc(NC(=O)CCSc2ccc(Cl)cc2)c1 | inactive
4 | CCOC(=O)Cn1c(=O)c2c(nc3n2CCCN3CCc2ccccc2)n(C)c1=O | inconclusive [inhibitor, partial curve]
5 | Cn1c(C(=O)N2CCN(C(=O)c3ccco3)CC2)cc2c(=O)n3ccccc3nc21 | inactive
6 | CCC(C)NC(=O)CNC(=S)N(Cc1ccccc1F)C1CCCCC1 (stereo not given) | inactive
7 | COc1ccccc1-n1c(SCC(=O)Nc2ccccc2C)nc(O)cc1=O | active: 2.62 µM
8 | CCCCCc1cc(=O)oc2c(C(CCN(CC)CC)c3cc(OC)c(OC)c(OC)c3)c(OC)cc(OC)c12 (stereo not given) | active: 13.1 µM
9 | CCOC(=O)[C@H]1[C@H]2COc3ccc(Cl)cc3[C@@H]2N2C(=O)CN(Cc3ccc(F)cc3)C(=O)[C@@]12C | inconclusive [inhibitor, single point]
10 | Cc1nc2ccccc2c(C)c1CC(=O)N(C)CC(=O)Nc1cccc(F)c1 | inconclusive [inhibitor, single point]
11 | CC(C)NC(=O)c1noc2cc([N+](=O)[O-])ccc12 | inactive
12 | Cc1ccccc1COc1ccc(/C(O)=C2/C(=O)C(=O)N(CCCn3ccnc3)C2c2ccco2)cc1 (stereo not given) | inactive
13 | CC1CCCCN1C(=O)Cn1cc(C=O)c2ccccc21 (stereo not given) | inactive
14 | N#Cc1sc2nc(-c3ccccc3)cc(-c3ccco3)c2c1N | inconclusive [inhibitor, single point]
15 | Cc1ccc(C)c(NC(=O)C(Sc2nc3ccc(C)cc3[nH]2)c2ccccc2)c1 (stereo not given) | inconclusive [inhibitor, partial curve]
16 | CN(c1ccccc1C(=O)Nc1ccccc1-c1ccccc1)S(C)(=O)=O | inactive
17 | COc1cccc(NC(=O)COC(=O)/C=C/c2c(C)nn(-c3ccccc3)c2C)c1 | inactive
18 | COc1ccc([N+](=O)[O-])cc1NC(=O)C(C)Sc1ccccc1 (stereo not given) | inconclusive [inhibitor, partial curve]
19 | CCCCN(C(=O)C1=CC=CN2CCS(=O)(=O)N=C12)c1ccccc1 | inconclusive [inhibitor, full curve, poor fit]
20 | CCOc1ccc(C(=O)Nc2cc(C)ccn2)cc1 | inactive
21 | COC1=C(C)C(O)=C(C(=O)/C=C/c2ccccc2)C(=O)C1(C)C | inconclusive [inhibitor, single point]
22 | CC(C)OCCCNc1ncc2c(n1)CC(c1cccs1)CC2=O (stereo not given) | inconclusive [inhibitor, partial curve]
23 | CC(=O)N1c2ccc(S(=O)(=O)N3CCC(C(=O)NCc4ccccc4)CC3)cc2CC1C (stereo not given) | inconclusive [inhibitor, single point]
24 | CC1CCN(C2=NC(=O)/C(=C/c3cn[nH]c3-c3ccccc3)S2)CC1 | inconclusive [inhibitor, partial curve]

Row | Compound | Potency
25 | CN1CCc2c(sc3nc(SCC(=O)NCc4ccco4)n(-c4ccccc4)c(=O)c23)C1 | active: 9.28 µM
26 | COCCN(C(=O)CCC(=O)Nc1nccs1)C(C(=O)NCCC(C)C)c1ccc(F)cc1 (stereo not given) | inactive
27 | Cc1ccccc1OCC(=O)Nc1ccc(Cc2ccncc2)cc1 | inconclusive [inhibitor, single point]
28 | CCn1c(CNc2ccc(OC)cc2)nnc1SCC(=O)N1CCCc2ccccc21 | inconclusive [inhibitor, single point]
29 | CC1=NN(C(C#N)c2cccc([N+](=O)[O-])c2)C(C)(C)C1 (stereo not given) | inactive
30 | CCc1ccc(NC(=O)C2(C)Cc3ccccc3C(=O)O2)cc1 (stereo not given) | inactive
31 | COc1cc(OC)cc(C(=O)NC2CCN(CC(=O)Nc3cccc4ccccc34)CC2)c1 | inconclusive [inhibitor, partial curve, poor fit]
32 | COc1ccc(Cc2nc(-c3cccnc3)no2)cc1OC | inactive
33 | CC(C)CCN1CCN(Cc2nc(-c3ccc(F)cc3)cs2)CC1CCO (stereo not given) | inconclusive [inhibitor, single point]
34 | COCCNC(=S)N/N=C/c1c2ccccc2cc2ccccc12 | active: 6.57 µM
35 | Cc1ccc(C(=O)NC2(O)C(=O)c3ccccc3C2=O)cc1C | inconclusive [inhibitor, partial curve]
36 | C=C(C)C(=O)O[C@H]1C/C(C)=C\C(=O)/C=C(\C)[C@H](O)[C@@H]2OC(=O)C(=C)[C@@H]21 | inconclusive [inhibitor, partial curve, poor fit]
37 | COc1ccc(-c2cc(-c3ccc(O)cc3)nc(N)c2C#N)cc1 | inconclusive [inhibitor, partial curve, poor fit]
38 | Cc1ccc2c(N)c(C(=O)N(c3ccccc3)c3ccccc3)sc2n1 | active: 9.28 µM
39 | Oc1c(Br)cc(C=Nc2ccc3nc(-c4ccccc4)[nH]c3c2)c(O)c1Br | inconclusive [inhibitor, partial curve, poor fit]
40 | O=C(Cn1nnc(-c2ccccc2)n1)Nc1cccc(S(=O)(=O)N2CCOCC2)c1 | inconclusive [inhibitor, partial curve, poor fit]
41 | Cc1cc(C)n(-c2cc(N3CCN(S(=O)(=O)c4ccc5ccccc5c4)CC3)ccc2[N+](=O)[O-])n1 | inconclusive [inhibitor, partial curve]
42 | CC(=O)c1ccc(OCCCC(=O)NNC(=O)c2ccccn2)cc1 | inconclusive [inhibitor, single point]
43 | CN(Cc1ccccc1)C(=O)CCc1ccccc1 | inactive
44 | CCS(=O)(=O)Nc1ccc(-c2cc(-c3ccccc3)c3cc(C)ccc3n2)cc1 | inconclusive [inhibitor, single point]
45 | COCCCNC(=S)N1CCN(c2nc(-c3ccc(F)cc3)cs2)CC1 | inconclusive [inhibitor, partial curve]
46 | Nc1nnnn1/N=C/c1ccccn1 | inactive
47 | COc1c(O[C@H]2O[C@@H](CO)[C@@H](O)[C@@H](O)[C@@H]2O)cc2c(c1OC)-c1ccc(SC)c(=O)cc1[C@H](NC(C)=O)CC2 | inactive
48 | COc1cc(CNc2ccc(C(=O)O)cc2)cc(Br)c1OCC(=O)NC(C)(C)C | inactive

Row | Compound | Potency
49 | CCN(Cc1ccccc1)C(=O)Cn1cc2c(n1)CCCC2 | inactive
50 | CCOc1cc(/C=C2\COc3ccccc3C2=O)ccc1OCC(=O)N(C)C | active: 14.7 µM
51 | CCOC(=O)C1=C(CN2CCN(C(=O)c3ccco3)CC2)NC(=O)NC1c1ccc(OC)cc1 (stereo not given) | inconclusive [inhibitor, partial curve]
52 | COc1ccc(C(=O)N(C)C(C)c2ccon2)cc1OC1CCN(C(C)C)CC1 (stereo not given) | inactive
53 | COC(=O)c1cccc(NC(=O)Nc2ccc(Cl)cc2)c1 | inactive
54 | Cc1ccc(OCC(=O)N2CCc3ccccc3C2)c(C)c1 | inactive
55 | Cc1ccc(-c2nnn(CC(=O)N(c3ccccc3)C(C(=O)NCC3CCCO3)c3ccc(Cl)cc3)n2)cc1 (stereo not given) | inconclusive [inhibitor, partial curve, poor fit]
56 | O=C(c1ccc([N+](=O)[O-])s1)N1CCN(c2ccccn2)CC1 | inconclusive [inhibitor, partial curve, poor fit]
57 | Cc1ccccc1N1CCN(C2CCCN(C(=O)COc3ccccc3)C2)CC1 (stereo not given) | inconclusive [inhibitor, single point]
58 | COc1cc(C(=O)NCCC(=O)N2CCC3(CC2)NCCc2[nH]cnc23)cc(OC)c1OC | inactive
59 | CCOc1cccc(-c2c(C(=O)N/N=C(\C)c3ccccn3)nnn2-c2nonc2N)c1 | inconclusive [inhibitor, full curve]
60 | Nc1cc(=O)[nH]c(SCC(=O)N2N=C(c3ccc4ccccc4c3)CC2c2ccccc2)n1 (stereo not given) | inconclusive [inhibitor, partial curve]
61 | CC(C)c1ccc(NC(=O)COc2ccccn2)cc1 | inactive
62 | CC1=C(C(=O)OCc2ccccc2)C(c2ccc(C)o2)C2=C(CCCC2=O)N1 (stereo not given) | active: 11.7 µM
63 | N#Cc1nc(-c2ccco2)oc1NCc1ccco1 | inactive
64 | O=S(=O)(c1cccs1)N1CN(Cc2ccc(Cl)cc2)c2nc3ccccc3nc21 | inconclusive [inhibitor, partial curve]
65 | COc1ccc(-c2cc(C(=O)NNC(=O)c3csc(N4CCOCC4)n3)c3ccccc3n2)cc1OC | inconclusive [inhibitor, single point]
66 | O=C(O)CN1CCN(C(c2ccccc2)c2ccccc2)CC1 | inactive
67 | CCN1C(=O)[C@@H]2[C@H](C1=O)[C@@H]1C(=O)Nc3ccccc3C(=O)N1[C@@H]2c1ccccc1 | inconclusive [inhibitor, partial curve, poor fit]
68 | CCOc1ccccc1CNC(=O)CCNS(=O)(=O)c1ccc2[nH]c(=O)oc2c1 | inconclusive [inhibitor, single point]
69 | COc1ccc(CN(C)C(=O)c2ccccc2OCc2c(C)noc2C)c(OC)c1 | inconclusive [inhibitor, partial curve, poor fit]
70 | COc1ccc(-n2nc(C(=O)NCC(=O)NCC3COc4ccccc4O3)c3ccccc3c2=O)c(OC)c1 (stereo not given) | inactive
